According to PMC4336329 (PLoS ONE, 2015):
Among all 310,000 compounds or so, about 2,200 (0.71%) showed an effect of 50% or more. Effects have a minus sign here. The list shows a part of the results.

Molecular target: human ether-à-go-go-related gene (hERG) potassium channel (human, UniProt Q12809)
Assay: primary screen, population patch clamp on CHO cells stably expressing hERG

Chain of human ether-à-go-go-related gene (hERG) potassium channel (Q12809 whole entry, looked up): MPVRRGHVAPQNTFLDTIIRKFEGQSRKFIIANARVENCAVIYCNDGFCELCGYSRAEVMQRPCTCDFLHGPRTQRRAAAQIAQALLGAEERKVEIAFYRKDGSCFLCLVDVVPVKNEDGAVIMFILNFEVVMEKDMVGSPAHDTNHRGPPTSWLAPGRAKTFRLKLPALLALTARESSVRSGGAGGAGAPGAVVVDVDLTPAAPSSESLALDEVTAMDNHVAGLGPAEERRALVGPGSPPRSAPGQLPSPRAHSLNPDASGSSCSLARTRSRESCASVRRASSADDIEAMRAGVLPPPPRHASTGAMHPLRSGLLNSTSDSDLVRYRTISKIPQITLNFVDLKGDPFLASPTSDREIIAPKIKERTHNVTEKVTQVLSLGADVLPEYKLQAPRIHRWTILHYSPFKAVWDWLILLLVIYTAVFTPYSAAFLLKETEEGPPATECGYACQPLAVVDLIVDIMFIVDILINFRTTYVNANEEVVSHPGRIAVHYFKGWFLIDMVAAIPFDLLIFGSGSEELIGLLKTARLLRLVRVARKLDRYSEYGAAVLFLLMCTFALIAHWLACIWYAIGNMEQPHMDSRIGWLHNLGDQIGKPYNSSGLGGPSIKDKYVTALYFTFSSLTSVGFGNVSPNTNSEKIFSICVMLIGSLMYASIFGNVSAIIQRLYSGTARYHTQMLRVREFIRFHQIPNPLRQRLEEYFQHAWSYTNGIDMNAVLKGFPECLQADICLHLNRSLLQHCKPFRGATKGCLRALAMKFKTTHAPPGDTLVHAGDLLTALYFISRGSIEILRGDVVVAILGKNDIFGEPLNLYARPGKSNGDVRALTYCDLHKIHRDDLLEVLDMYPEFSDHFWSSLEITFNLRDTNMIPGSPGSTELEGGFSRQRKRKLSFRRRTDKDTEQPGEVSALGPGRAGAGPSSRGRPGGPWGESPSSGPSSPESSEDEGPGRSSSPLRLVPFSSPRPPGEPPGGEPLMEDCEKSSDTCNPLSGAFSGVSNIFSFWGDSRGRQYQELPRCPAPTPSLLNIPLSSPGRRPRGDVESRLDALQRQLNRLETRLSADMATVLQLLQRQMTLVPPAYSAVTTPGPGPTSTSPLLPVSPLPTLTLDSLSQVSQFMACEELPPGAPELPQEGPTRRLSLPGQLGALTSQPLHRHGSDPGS

| Compound | hERG current change (%, negative = inhibition) at 1uM |
| --- | --- |
| O=C(NCc1ccccc1)C(=O)Nc1cccc(C(=O)O)c1 | 9.27% |
| COc1nc(NC(C)(C)C)nc(Oc2ccc(=O)n(C)n2)n1 | 18.8% |
| Cc1cccc(N(CC(=O)NC2CCCCC2)C(=O)CCCC(=O)Nc2ccccn2)c1 | 4.32% |
| O=C(CSc1nc2ccccc2s1)NNC(=S)Nc1ccc(Cl)cc1 | 10.4% |
| CN=C1S/C(=C\c2cccn2-c2cccc(Br)c2)C(=O)N1C | 2.64% |
| O=C(CSc1nc2ccsc2c(=O)n1CC1CCC(C(=O)O)CC1)c1ccc(F)cc1 (stereo not shown) | 10.2% |
| Cc1ccc(-c2cc(C(=O)N3CCCC3)no2)cc1 | 8.87% |
| CC(=O)C1=C(C)Nc2ncnn2C1c1ccc(C)cc1 (stereo not shown) | 8.11% |
| O=C(CSc1nccn1Cc1ccco1)Nc1cccc(F)c1 | -5.06% |
| C[C@@H](NC(=O)C1(c2ccccc2)CCN(C(=O)OC(C)(C)C)CC1)C(=O)N[C@@H](Cc1ccccc1)C(=O)O | -4.71% |
| CCN(CC)S(=O)(=O)c1ccc2c(c1)oc(=O)n2CC(=O)N(C)C1CCCCC1 | -7.27% |
| CC1CCCC(C)N1C(=O)C1CCCCC1 (stereo not shown) | 12.3% |
| COc1cc(C(=O)Nc2nnc(C)s2)cc(OC)c1OC | 4.94% |
| c1ccc(N2CCN(Cc3cnc(N4CCOCC4)s3)CC2)cc1 | 7.2% |
| CNC(=O)Cn1ncc2c3ccccc3n(C)c2c1=O | 13.1% |
| COc1ccc(/C=C2\C(=O)NC(=O)N(CCC3=CCCCC3)C2=O)c(OC)c1 | 7.4% |
| O=C(O)CSCc1nc2scc(-c3ccccc3)c2c(=O)[nH]1 | 11.5% |
| Cc1ccc(C)c(S(=O)(=O)NCc2ccc(C(=O)N3CCN(c4ccccc4)CC3)cc2)c1 | 11.6% |
| O=C1NC(=O)N(c2ccccc2)C(=O)/C1=C/c1coc2ccc(O)cc2c1=O | 8.07% |
| O=C(NN1CCOCC1)c1cc(-c2cccs2)nc2ccccc12 | 2.39% |
| O=C(Nc1nc(-c2cccs2)cs1)c1ccc(S(=O)(=O)N2CCCC2)cc1 | 10.3% |
| Cc1ccc(S(=O)(=O)CCC(=O)N(C)c2c(N)n(Cc3ccccc3)c(=O)[nH]c2=O)cc1 | 10.9% |
| Cc1ccc2c(c1C)NC(C)CC2C.Cl (stereo not shown) | 8.06% |
| CCn1c(C)nc2cc(C(=O)NNC(=S)Nc3ccc(OC)cc3)ccc21 | 15.3% |
| COc1cc2c(cc1OC)CN(C(=O)CCOc1ccccc1)CC2 | 14.5% |
| Cc1ccc(OC(C)C(=O)Nc2ccc3c(c2)n(C)c(=O)n3C)c(C)c1 (stereo not shown) | 11.9% |
| CCN(CC)Cc1oc(-c2ccccc2)cc1C(=O)O | 8.71% |
| CC1Cc2ccccc2N1C(=O)CSc1nc(-c2ccco2)cc(C(F)(F)F)n1 (stereo not shown) | -6.38% |

| Compound | hERG current change (%, negative = inhibition) at 1uM |
| --- | --- |
| Cc1ccccc1C(=O)Nc1ccc(C(=O)N/N=C/c2ccc(F)cc2)cc1 | 18.7% |
| FC(F)(F)c1cccc(NC(=S)NCCc2ccccn2)c1 | 2.28% |
| C1=CCN(Cc2ccccc2)C1 | 11.4% |
| O=C(NC1CCN(C(=O)NCc2ccccc2)CC1)c1ccc(F)cc1 | 3.75% |
| CCn1c(CNC(=O)COc2c(C)cccc2C)nnc1SCC(=O)Nc1nccs1 | -29.4% |
| CCNC(=O)c1cccc(S(=O)(=O)N2CCCCCC2)c1 | 5.61% |
| CC(C)[C@]12O[C@H]1[C@@H]1O[C@]13[C@]1(O[C@H]1C[C@H]1C4=C(CC[C@@]13C)C(=O)OC4)[C@@H]2O | 7.15% |
| CCOC(=O)C1CCCN(C(=O)Cn2c(=O)c3cccn3c3cccnc32)C1 (stereo not shown) | 16.8% |
| O=C(O)COc1cccc(NC(=O)c2ccccc2)c1 | 6% |
| COc1ccc(CNC(=O)C2CCN(S(=O)(=O)c3cccc4nsnc34)CC2)cc1 | 14.5% |
| CC(=O)c1cccc(NC(=S)NC(=O)c2ccccc2C)c1 | -0.276% |
| Cn1nc(-c2ccc(Cl)cc2)c2cc(C(=O)NCCCN3CCCC3)sc21 | -9.08% |
| COc1cc(CN2CCN(C(c3ccccc3)c3ccccc3)CC2)cc(OC)c1OC.O=C(O)C(=O)O | 11.7% |
| CCOc1ccccc1N1CCN(C(=O)c2ccc(OCC(=O)N3CCOCC3)c(OC)c2)CC1 | 4.66% |
| COc1ccc(OC)c(S(=O)(=O)N2CCC(C(=O)N(C)Cc3ccccc3)CC2)c1 | 3.15% |
| Cc1cc(C(=O)N2CCc3ccccc32)c2ccccc2n1 | 13.5% |
| CCN(CC(=O)Nc1c(C(=O)OC)[nH]c2ccc(C)cc12)c1ccc2c(c1)OCO2 | 11.6% |
| COc1ccc2[nH]c(=O)c(CN(C)C(=O)COc3ccccc3)cc2c1 | 17.8% |
| CCC(C(=O)Nc1ccccc1Cl)n1nc(C)c2c(C)n(-c3ccccc3)nc2c1=O (stereo not shown) | 8.4% |
| COCc1cc(C)n(CC(=O)Nc2ccc3c(c2)OCO3)c(=O)c1C#N | 16.2% |
| CN(C)c1ccc(NC(=O)CN2CCC(O)(c3ccccc3)CC2)cc1 | 1.15% |
| COc1ccc(CN(C)C(C)C(=O)Nc2ccc(S(=O)(=O)N3CCCC3)cc2)c(OC)c1OC (stereo not shown) | 14.1% |
| Cc1ccc(C)c(OCc2cc(C(=O)N3C[C@@H](C)O[C@@H](C)C3)no2)c1 | 7.44% |
| CC(C)n1cc(CN2CCC(Oc3ccc(C(=O)N4CCCC4)cc3)CC2)cn1 | 3.44% |
| CCC(=O)Nc1ccccc1Nc1cc(C#N)c(C#N)cc1[N+](=O)[O-] | 9.3% |
| COc1cccc(N(CC(=O)NCc2cccnc2)S(C)(=O)=O)c1 | 8.02% |
| Oc1ccc(/C=N/Nc2ncc(Cl)cc2Cl)cc1 | 6.99% |
